# Read counts are not given, so values of variants with three or more changes are uncertain.
# B1: CPEB3 Ribozyme (parent)
# chain: UAACAGGGGGCCACAGCAGAAGCGUUCACGUCGCAGCCCCUGUCAGAUUCUGGUGAAUCUGCGAAUUCUGCUGUAUAUCUC
# Variants of: B1
# Test: self-cleavage, relative activity (ratio to wild type); higher = more cleavage; in vitro, sequencing
# In short: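 Barcoded CPEB3 ribozyme mutants, produced by rounds of error-prone PCR, self-cleaved while being transcribed with T7 RNA polymerase for 5 hours at 37°C and during a subsequent 15 min DNase I step before EDTA was added. Sequencing of template-switched cDNA on Illumina gave cleaved and total reads, and DNA sequencing assigned barcodes to variants. Each variant's relative activity is its cleaved/total read fraction divided by the unmutated ribozyme's fraction, averaged across three batches. A variant needed a minimum of 5 reads.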
row,Variant,self-cleavage
1,A3U U60C A65G,0.19
2,A5C A20G A21G U25C A45G U54A,0.21
3,A5C U43A U51A U74C,1.13
4,C4G A13U U31C U49C,0.28
5,A3U U26C A47G U48C A57G U80C,0.27
6,C4U U72C U78A C81U,1.32
7,C4A U26C G36A U48C,0.35
8,C4U U26A U51C U74A A77G,1.26
9,A3U U58A U66C U69C,0.16
10,A5C U43C U51G A64G U66C,0.11
11,A5C A18G U54C A56U,0.5
12,A5C A15G G22A U41C A57G U80C,0.1
13,C4U A13G A18G,0.23
14,C4G G10A C12U C23U U74C,0.12
15,A5C A15U A35U,0.47
16,C4U C14A A21G U25C U48C U80A,0.07
17,C4A C29A C59G,0.24
18,A5C U31C U41C U58A,0.27
19,C4U A5G A45G U58G U66A,0.12
20,A3U U26C U41G A57G U66C G70A U80C,0.37
21,C4U C11G U31C U41A U78C,0.11
22,A5C G24A C38G U41G U51A,0.13
23,C4U U26C U41G A56G U74C U80C,0.29
24,A5C C12A C71U G73A,1.23

row,Variant,self-cleavage
1,A3U U41C U54C,0.88
2,C4U A15U A35G U43C,1.22
3,C4U A5G C23A U25A A57G A64U U66G,0.06
4,C4G U26C A35C U80A,0.61
5,C4U A20U U51A A56G,0.12
6,C4G A21G U72G,0.87
7,C4A A20U U48C G63U,0.14
8,C4A C71G U78C,0.6
9,C4G A20C U51A U74C U78A,0.19
10,A5C U26C G33A G52A U58G A65G,0.08
11,A5C A20G U26A A56U,0.49
12,A5C U41A A57U U67A,0.14
13,A3U U41A G61C U67C U78C,0.17
14,C4U A35U U48G U58A U72C,0.08
15,C4A U26A A47G,0.91
16,C4G A5U U43A A45U,0.82
17,C4A C23A U78C,0.36
18,A5C A18G U67C,0.12
19,A5C A28G U31C U66C,0.27
20,C4A C40U A65G,0.15
21,A5C C34G A64U,0.33
22,C4U A45U U54A A57G,0.33
23,C4U G24A C27G U60C,0.09
24,A5C A35G U60A,1.19

row,Variant,self-cleavage
1,C4U A18U G19A A20G A57G U58C U72C,0.09
2,A5C U43C U74C U80C,0.93
3,C4U U51C C62U A64G U76A,0.35
4,A5C A35U A47G,0.39
5,C4U U41C C44U,0.56
6,C4U A56U A64U,0.47
7,A5C U41C U48C U72C,0.36
8,C4G G9U A18U U41A U43A,0.08
9,C4U U43C G46U A56G U80G,0.24
10,A3U U43C U74A,1.1
11,C4U A18U U31A,0.46
12,C4U A57G C62U,0.3
13,C4U A28G C40U U72C,0.73
14,A5C A65U U78C,0.21
15,A5C G10A A28G U76A,0.45
16,A3U U76A U78C,1.05
17,C4A A35U U49C,0.21
18,C4U G22C A47U,0.11
19,A5C C11U U49C U58C U60A U78A,0.06
20,C4U A35C U76C,1.19
21,C4G A18G A64U U69A U80C,0.26
22,A3U U25C A45G,0.8
23,A3U U25C A45U,0.51
24,A5C C11U U41C A57G C59U,0.15

row,Variant,self-cleavage
1,A3U U51A A65U U66C,0.27
2,C4U U26A U58C U66C U72A U76C,0.18
3,C4U G10A A15G A21U U31A A45G A47G,0.05
4,A3U U25C U31A C40U A64G C68A,0.11
5,C4U A18U C39G U78C U80C,0.08
6,A5C A18G U54C,0.28
7,C4G A15G A18G A35U U69A,0.12
8,C4A A57G A64G,1.13
9,C4U A20G A21G C29U U72C,0.13
10,A5C A15G U41G A65G U72C U80C,0.53
11,C4G U31C U78A,1.16
12,A5C A35U U54G,0.49
13,C4U U25C U26A U58C U72A U76C,0.16
14,A3U U26C A35U A57G C79U,0.22
15,A3U U31G A35G,1.17
16,C4U G30A U58C U78C,0.07
17,C4U G16U U72A,0.57
18,A5C A20G U25C U26C A57U U72C,0.48
19,C4G A20U G63A A65G,0.41
20,A5C A15G A18U U26C,0.2
21,C4G A77G U80C,1.15
22,C4U A15G A56U,0.65
23,A5C A13U U72A,0.55
24,C4A C23G C38U U48C U49C U58G,0.1

row,Variant,self-cleavage
1,A5C G7A A21G U25C U26A A64G U69A,0.11
2,C4G C23U C27G A56G C62U U67C,0.05
3,C4G G8A A18G U58C C59A,0
4,A3U U74A U78C,1.26
5,C4U U49C G52U,0.51
6,C4U G10A A15U A21U U25C U31A,0.07
7,A5C U26C C44A U51C,0.09
8,C4U U31A U43C U51C,0.3
9,C4U G36C A45G,0.47
10,A3U U31C A47G U80A,1.06
11,C4U A5G A13U U41C U60A A64G U80A,0.23
12,A5C C59A U80C,0.48
13,A5C A13G A35G U69G A75G,0.12
14,A5C G9U A28U C32U,0.27
15,C4U A20G A28G U51C U60A U69A,0.13
16,C4A A21G U54A A57G U67C,0.26
17,A3U U58C U60C A64U,0.57
18,A3U U54C A64G U69A U78C,0.18
19,A3U U41C U80C,0.96
20,A3U U51C A57G U66C,0.4
21,C4U U26C A64G U69A U78C,0.28
22,C4A A45G U74A,1.06
23,C4U A35U U54A A64G,0.8
24,A5C A18G A45G A57G,0.55

row,Variant,self-cleavage
1,A5C C11U G16A A28G U54G A75G,0.04
2,C4U A35G U78A,1.26
3,A5C G8A A21G C29U,0.03
4,C4A A45U U54A,0.66
5,C4U U25C A28U G30A U67C,0.15
6,C4U A15U C37A U54G,0.13
7,A5C A15G U54C U58C,0.31
8,A5C A15G A56U,0.39
9,C4U A18G U58C U72C,0.21
10,C4U U26C U43A U51C U74C,0.45
11,A3U U26G U31C C71A,0.04
12,C4U G7U C11G U48C A64G,0.02
13,C4U C11A C37G U43C U69C,0.08
14,A3U U41A U51A U60A,0.29
15,A3U U49A C79U,1.04
16,A3U U49C U69C,0.28
17,C4U A15U A21G A28U A47G,0.49
18,A5C G53A U58C U74C,1.05
19,C4A U31G G53C A57G,0.62
20,A3U U25C U66C U72C U74C U80C,0.28
21,C4A A28G U43A U58A,0.23
22,A3U U25C C40A A45C A65G,0.48
23,C4U A35G U66G,1.22
24,A5C A18U C37G,0.39

row,Variant,self-cleavage
1,C4A U26C C32G U43C U48C U74C U76C,0.07
2,C4U C12U A47U,1.33
3,A5C G24A U31C G42A A57U U66C,0.1
4,A3U U25C U31C U43A A57U,0.24
5,C4G A18C U69C,0.53
6,C4A U60A G63U A77G,1.07
7,C4G A5G A15G,0.54
8,C4G C14U U25C U43A U49C U54C U69A,0.06
9,C4U A56G A57G U67A U72A U80C,0.33
10,C4U U41C A47C A56U,0.26
11,A3U U49C U80C,0.51
12,C4U A5G U41C,0.79
13,C4U U41A A57G U78A,0.33
14,C4U C11U C50U A56U,0.3
15,C4A A64G C79U,1.14
16,A3U U51A U72A,1.08
17,A3U U48C G52A U54C,0.75
18,C4U C12U A21G U69C A77G U80C,0.43
19,A3U U41C G63A A65G,0.47
20,A3U U25C A56G,0.3
21,C4G U43A G73A,1.28
22,C4A A35G U58C A77G,1.22
23,A5C G30A A35U,0.24

# Reference: the RNAGym collection of RNA variant scans (doi:10.1093/nar/gkz1192)
